# Test results published in PubChem BioAssay AID493208 (National Center for Advancing Translational Sciences (NCATS), 2011).
# Screen size: about 44,000 compounds; about 340 (0.77%) were called active. Another 5% or so got no clear call; they are omitted. Calls come from the whole dose curve; as a rule, active = well fitted inhibition curve with a large enough effect; inconclusive = small, poorly fitted or top-dose-only effect; inactive = flat fitted curve, though single readings scatter. The list shows a part of the results.
# Assay: Acumen qHTS Assay for Inhibitors of the mTORC1 Signaling Pathway in MEF (Tsc2-/-, p53-/-) Cells: Sytravon; note: nearly all actives have a fitted effect of over 50% in size;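 for activity change, negative = inhibition: plate controls were DMSO for no effect and rapamycin for full effect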
# Conditions: phospho-rpS6 immunofluorescence/PI, 24 h; series mostly up to 38.3 µM; activity change, negative = inhibition: at the top concentration
# Outline: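 Tsc2-/-, p53-/- MEFs (empty-vector stable line) in DMEM + 10% FBS were treated with compounds 24 h at 37 degree Celsius, fixed, and immunostained for phospho-rpS6 (Alexa-488) with propidium iodide counterstain. Laser-scanning cytometry gave % positive cells, normalized against 7.5 nM rapamycin and DMSO.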
# Potency is the fitted concentration of half-maximal effect.
Structure (SMILES),"activity change, negative = inhibition",Potency
Cc1cccc(NC(=O)Cn2cc(C(=O)c3ccccc3)c3ccccc32)c1,inactive: -20.3%,–
O=C(CCc1nc(C2=CCN(Cc3cccc(Cl)c3)CC2)no1)Nc1ccccc1F,inactive: -15.4%,–
O=C(COc1ccccc1Cl)N1CCN(CCc2ccncc2)CC1,inactive: 0%,–
N#Cc1cc2c(nc1SCC(=O)Nc1ccc(OC(F)(F)F)cc1)C1CCN2CC1,inactive: -25.3%,–
Cc1ccc2oc(-c3ccc(Cl)cc3)c(O)c(=O)c2c1,–,active: 9.27 µM
O=S1(=O)N(Cc2ccccc2)CCCN1Cc1cccc(Cl)c1,inactive: 9.7%,–
Cc1ccc(Cn2cccc(C(=O)Nc3cc([N+](=O)[O-])ccc3C)c2=O)cc1,inactive: -7.2%,–
O=C(COc1cccc(Cl)c1)N1CCN(CCc2ccncc2)CC1,inactive: -2.53%,–
CCc1ccc(NC(=O)c2cccn(Cc3cccc([N+](=O)[O-])c3)c2=O)cc1,inactive: 0.856%,–
Cc1cccc(-n2c(/C=C/c3ccccc3O)nc3ccccc3c2=O)c1,inactive: 13.3%,–
Cc1ccc(-n2c(/C=C/c3ccc(Br)s3)nc3ccccc3c2=O)cc1,inactive: 6%,–
O=c1c2ccccc2nc(/C=C/c2cccc3ccccc23)n1-c1ccccc1Cl,inactive: 10.3%,–
COc1ccc(Cl)cc1NC(=O)CN1C(=O)CN=C(c2ccccc2)c2cc(Cl)ccc21,inactive: -0.0486%,–
Cc1cc(-n2c(/C=C/c3ccc(Br)s3)nc3ccccc3c2=O)ccc1Br,inactive: -8.76%,–
Cc1ccc(-n2c(/C=C/c3cc(Br)cs3)nc3ccccc3c2=O)cc1,inactive: 11.9%,–
Cc1ccccc1CN1C(=O)CN=C(c2ccccc2)c2cc(Cl)ccc21,inactive: -13.9%,–
COc1ccc(C(=O)Nc2ccc(Cl)cc2C(=O)c2ccccc2)c(OC)c1,inactive: -17.5%,–
Cc1ccc(OCC(=O)N2CCN(CCc3ccncc3)CC2)cc1C,inactive: -24.8%,–
CCCCc1ccc(NC(=O)c2cccn(Cc3ccc(Cl)cc3)c2=O)cc1,inactive: -0.803%,–

Structure (SMILES),"activity change, negative = inhibition",Potency
Cc1c(C(c2ccc(Cl)cc2Cl)c2c(O)c3ccccc3oc2=O)c(=O)n(-c2ccccc2)n1C (configuration not stated),inactive: -1.51%,–
O=c1c2ccccc2nc(/C=C\c2ccccc2F)n1-c1ccc(O)cc1,inactive: 10.3%,–
CCN(CC)CCSc1nc2ccccc2c(=O)n1-c1ccc(Cl)cc1,inactive: 0.751%,–
Cc1cccc(Cn2cccc(C(=O)Nc3ccc4c(c3)OCCO4)c2=O)c1,inactive: 1.63%,–
COc1cccc(NC(=O)Cn2cc(C(=O)c3ccccc3)c3ccccc32)c1,inactive: 3.73%,–
CCCOc1ccc(C2SCC(=O)Nc3c2c(C)nn3-c2cccc(C)c2)cc1OC (configuration not stated),inactive: -0.393%,–
Cc1ccc(Cn2cccc(C(=O)Nc3ccc4c(c3)OCO4)c2=O)cc1,inactive: -0.279%,–
Cc1ccc(Cl)cc1NC(=O)N(Cc1ccc2c(c1)OCO2)C1CCN(Cc2ccccc2)CC1,inactive: 0.535%,–
Cc1ccc2nc(NC(=O)c3cccn(Cc4ccc(Cl)cc4)c3=O)sc2c1,inactive: -7.91%,–
Cn1c(=O)n(C)c2cc(CNCCc3ccc(F)cc3)ccc21,inactive: -0.882%,–
Cc1ccc(NC(=O)Cn2cc(C(=O)c3ccccc3)c3ccccc32)cc1,inactive: -2.02%,–
Cc1ccc(-n2c(/C=C\c3ccc(F)cc3)nc3ccccc3c2=O)cc1Cl,inactive: 12.2%,–
Cc1cccc(-c2nc(CN3C(=O)CN=C(c4ccccc4)c4ccccc43)c(C)o2)c1,inactive: 2.26%,–
CCOc1ccc(CN(CCc2ccc3c(c2)OCO3)Cc2cccc(OC)c2)cc1,inactive: -17.8%,–
COc1ccc(C)cc1NC(=O)N(Cc1ccc2c(c1)OCO2)C1CCN(Cc2ccccc2)CC1,inactive: -5.59%,–
CC(C)C12CN3CC(C(C)C)(CN(C1)C3c1ccccn1)C2=O (configuration not stated),inactive: 3.38%,–
CCOc1ccc(NC(=O)Cn2cc(C(=O)c3ccccc3)c3ccccc32)cc1,inactive: 6.34%,–
Cc1ccc2c(c1)C(Cc1nc3ccccc3c(=O)n1-c1ccc(Br)cc1)C(=O)N2 (configuration not stated),inactive: -14.1%,–
O=C(COc1ccccc1F)N1CCN(Cc2cc(=O)n3nc(-c4ccccc4Cl)sc3n2)CC1,inactive: -5.06%,–

Structure (SMILES),"activity change, negative = inhibition",Potency
COc1ccc(NC(=O)c2sc3nc4c(cc3c2N)N2CCC4CC2)cc1OC,inactive: -28.5%,–
O=C(COc1cc(Cl)ccc1Cl)Nc1ccc(Cl)cc1C(=O)c1ccccc1,inactive: 4.72%,–
Cc1cccc(OCC(=O)N2CCN(CCc3ccccn3)CC2)c1,inactive: -25.8%,–
O=C(Nc1ccc(F)c([N+](=O)[O-])c1)c1cccn(Cc2ccccc2)c1=O,inactive: -3.39%,–
Cc1ccc(-n2c(=O)[nH]c3ccc(Br)cc3c2=O)cc1,inactive: -5.27%,–
C=Cc1ccc(Cn2c(C)c(CNCCc3cc(OC)ccc3OC)c(C(=O)O)c2C)cc1,inactive: -4.52%,–
CCCCc1nn2c(=O)cc(COC(=O)Cc3ccccc3)nc2s1,inactive: -1.86%,–
Cc1ccccc1Cn1cccc(C(=O)Nc2nc3ccccc3s2)c1=O,inactive: -0.181%,–
CC(C)(C)c1ccc(C(=O)Nc2ccc(Cl)cc2C(=O)c2ccccc2)cc1,inactive: 6.67%,–
O=C(Nc1cc(C(F)(F)F)cc(C(F)(F)F)c1)c1cccn(Cc2ccccc2Cl)c1=O,inactive: -12.3%,–
O=C1CN=C(c2ccccc2Cl)c2cc(Cl)ccc2N1Cc1cccc(Cl)c1,inactive: -6.16%,–
CC(C)c1nn2c(=O)cc(COC(=O)Cc3ccccc3)nc2s1,inactive: 3.83%,–
Cc1ccc(NC(=O)c2cccn(Cc3ccccc3C)c2=O)c(C)c1,inactive: 1.76%,–
Cc1ccc(CN2C(=O)c3ccccc3Sc3ccc(C(=O)N4CCC5(CC4)OCCO5)cc32)cc1,inactive: 10.4%,–
Cc1ccc(NC(=O)CN2C(=O)CN=C(c3ccccc3)c3ccccc32)cc1,inactive: -6.57%,–
CCCCCc1nc2ccccc2c(=O)n1-c1ccc(C)cc1,inactive: 4.71%,–
Cc1ccccc1-n1nc(C)c2c1NC(=O)CSC2c1ccc(N(C)C)cc1 (configuration not stated),inactive: -10.5%,–
COc1ccc(-n2c(/C=C\c3ccccc3F)nc3ccccc3c2=O)cc1OC,inactive: 5.43%,–
COc1cccc(-n2c(/C=C/c3ccccc3O)nc3ccccc3c2=O)c1,inactive: -10.9%,–
